# Results from PubChem BioAssay AID1461 (National Center for Advancing Translational Sciences (NCATS), 2008).
# About 2,300 (1%) of roughly 220,000 compounds were called active. Inconclusive means that the source gave no clear call. Such entries were picked first, then a sample of the others. The call rests on the fitted dose curve; in most records, active means well fitted inhibition curve with a large enough effect; inconclusive means small, poorly fitted or top-dose-only effect, or effect the other way; inactive means no such curve, though single readings can be large or run the other way. Potencies of inconclusive entries are left out as doubtful fits.
# Target: Neuropeptide S receptor (Homo sapiens) (UniProt Q6W5P4)
# Assay: qHTS Assay for Antagonists of the Neuropeptide S Receptor: cAMP Signal Transduction; further: nearly all actives have a fitted effect of over 50% in size
# Settings: CHO-NPSR cells, cAMP TR-FRET, antagonist mode; activity change, negative = inhibition: at 38.3 µM (top of the series) unless noted
# On the % scale 0 is the no-effect control and ±100 the full control effect; potency means the concentration at half of the fitted maximal effect; tags describe the fitted curve by direction and shape.
# Chain of UniProt Q6W5P4 (Q6W5P4 whole entry, looked up): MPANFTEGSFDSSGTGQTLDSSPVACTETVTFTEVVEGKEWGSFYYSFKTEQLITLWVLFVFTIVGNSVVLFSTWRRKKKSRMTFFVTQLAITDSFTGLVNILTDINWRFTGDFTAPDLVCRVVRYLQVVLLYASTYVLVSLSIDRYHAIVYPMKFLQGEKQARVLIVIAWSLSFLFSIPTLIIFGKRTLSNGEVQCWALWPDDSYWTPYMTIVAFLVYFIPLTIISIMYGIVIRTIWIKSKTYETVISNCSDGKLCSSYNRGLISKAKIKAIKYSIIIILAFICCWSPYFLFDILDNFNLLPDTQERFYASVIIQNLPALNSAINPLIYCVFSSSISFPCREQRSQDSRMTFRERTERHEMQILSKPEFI
SMILES,"activity change, negative = inhibition",Potency
COc1ccc(/C(O)=C2\C(=O)C(=O)N(c3cc(C)on3)C2c2ccccc2OC)cc1 (stereo unspecified),inactive: 1.86% [at 46.1 µM],–
CC(C)(C)c1nc(SCC(=O)Nc2ccc3c(c2)OCCO3)c2ccccc2n1,–,"inconclusive [inhibitor, single point]"
CCc1ccc(O)c(N=Cc2cccc(C)c2O)c1,inactive: -2.5% [at 46.1 µM],–
CCOc1ccc2nc(NC(=O)c3ccoc3C)sc2c1,–,"inconclusive [inhibitor, single point]"
COc1ccc(C(C(=O)NC2CCCC2)N(C(=O)c2ccoc2C)c2ccc(C)c(C)c2)cc1 (stereo unspecified),–,"inconclusive [inhibitor, single point]"
COc1ccc(Cn2nnnc2C(c2ccc(N(C)C)cc2)N2CCC(C)CC2)cc1 (stereo unspecified),–,"inconclusive [inhibitor, partial curve]"
COc1cc(/C=C2/C(=O)NN(c3cccc(C)c3)C2=O)cc([N+](=O)[O-])c1O,inactive: -50%,–
CC(C)(C)OC(=O)NCCc1nnc(SCC(=O)Nc2ccc(Br)cc2)o1,inactive: 23.3%,–
CCCCNC(=O)CSc1nc2cc(OC)c(OC)cc2c(=O)n1Cc1ccc(OC)cc1,inactive: -0.835% [at 46.1 µM],–
COCCCn1c(-c2ccc(S(=O)(=O)N3CCOCC3)cc2)csc1=Nc1ccccc1,–,"inconclusive [inhibitor, full curve, poor fit]"
CCCc1nc2ccccc2c(C(=O)OC(C)C(=O)NCc2ccc3c(c2)OCO3)c1CC (stereo unspecified),inactive: -22.3%,–
Cc1cc(C)c[n+](CC(=O)c2cc3ccccc3oc2=O)c1,inactive: -4.42% [at 46.1 µM],–
COc1ccc2c(c1)c(/C=N/Nc1nc3ccccc3[nH]1)c(C)n2C,–,"inconclusive [activator, single point]"
CCO/C([O-])=N/c1c[n+](N2CCOCC2)no1,–,"inconclusive [activator, partial curve, poor fit]"
Cc1ccc(N(C)C(=O)N2CCN(S(=O)(=O)c3c(C)cc(C)cc3C)CC2)cc1,–,"inconclusive [inhibitor, single point]"
CCOC(=O)c1c(NC(=O)CSc2nnc(CNc3ccc(F)cc3)o2)sc(C)c1C,–,"inconclusive [inhibitor, single point]"
CC1CCN(C(C)C(=O)Nc2ccccc2-c2ccccc2)CC1 (stereo unspecified),–,"inconclusive [inhibitor, single point]"
CCc1cccc(CC)c1NC(=O)CN1C2CCCC1CC(NC(=O)Nc1cccc(OC)c1)C2 (stereo unspecified),–,"inconclusive [activator, partial curve]"
O=C1NN(c2ccccc2)C(=O)/C1=C/c1ccc(Sc2cccc3ccccc23)o1,–,"inconclusive [inhibitor, single point]"
CC1(C)Cc2c(cnn2-c2ccccc2)-c2c1c1ccccc1n2CC(O)CBr (stereo unspecified),–,"inconclusive [inhibitor, single point]"
O=Cc1ccc2cccnc2n1,inactive: 11.8%,–
CCc1ccc2[nH]c(=O)c(CN(Cc3ccc(OC)cc3)Cc3nnnn3CCOC)cc2c1,–,"inconclusive [inhibitor, partial curve]"
CC(=O)Oc1ccc2oc(/C=C/N(C)C)c([N+](=O)[O-])c2c1,–,"inconclusive [inhibitor, partial curve, poor fit]"

SMILES,"activity change, negative = inhibition",Potency
CCOC(=O)c1c(NC(=S)N2CCN(C)CC2)sc2c1CCN(C(=O)OCC)C2,–,"inconclusive [activator, partial curve]"
CC1CC2=C(CC1/C=N/NC(N)=S)C(C)(C)CCC2 (stereo unspecified),–,active: 12.6 µM
C[C@H](NC(=O)c1nc[nH]c1C(=O)N[C@@H](CCCCNC(=O)OC(C)(C)C)C(=O)OC(C)(C)C)c1ccccc1,–,"inconclusive [inhibitor, single point]"
COC(=O)c1ccc(CSc2cc(C)c3cc(C)cc(C)c3n2)o1,inactive: -43.8%,–
O=C1C(=O)c2ccccc2C(O)=C1c1ccccc1F,–,active: 12.6 µM
CC(C)n1cnc2cc(NCc3ccccn3)ccc21,–,"inconclusive [inhibitor, full curve, poor fit]"
COCCOC(=O)c1c(C)oc2ccc(OCc3cc(C(=O)OC)oc3C)cc12,–,"inconclusive [inhibitor, partial curve, poor fit]"
Cc1ccc(C(=O)N2CCN(c3cccc(Cl)c3)CC2)cc1C,–,"inconclusive [inhibitor, single point]"
Cc1cccc(NC(=O)C2CCCC2)c1,–,"inconclusive [activator, partial curve]"
Cc1nc2c(c(-c3ccccc3)c1C#N)C(=O)c1ccccc1-2,inactive: -5.72% [at 46.1 µM],–
C/C(=N\NC(=O)Nc1ccccc1)c1ccccc1,inactive: 7.65% [at 46.1 µM],–
COc1cccc(-c2nn3c(-c4cccc(C)c4)nnc3s2)c1,–,"inconclusive [inhibitor, partial curve]"
COc1ccc(CN(Cc2ccc(OC)cc2)C(=O)c2cccs2)cc1,–,"inconclusive [activator, full curve, poor fit]"
O=C(COC(=O)c1ccc(O)cc1)NCc1ccc2c(c1)OCO2,inactive: 4.28%,–
COc1cc2c(cc1OC)C1(Nc3c-2c(C)nn3-c2ccccc2)C(=O)Nc2ccccc21 (stereo unspecified),inactive: -29% [at 46.1 µM],–
CCOC(=O)c1nn(-c2cccc(OC)c2)c(-c2ccccc2)c1C(=O)c1ccccc1,–,"inconclusive [inhibitor, single point]"
COC(=O)c1ccc(-n2nnnc2SCc2ccccc2OC)cc1,–,"inconclusive [inhibitor, partial curve]"
COc1cc(/C=N/OCC(=O)NC2CCCCC2)ccc1OCc1ccccc1,inactive: -17.2%,–
CCc1ccc(NC(=O)N(CCN2CCOCC2)Cc2ccc3c(c2)CCCN3CC)cc1,–,"inconclusive [inhibitor, single point]"
C/C(=N\Nc1nccnc1Cl)c1ccc(F)cc1,inactive: -13.9%,–
Fc1ccc(CNC(=S)Nc2ccc(Cl)cc2)cc1,inactive: -14.2% [at 46.1 µM],–
CCN(CC)C(=O)C1CCN(c2ncnc3c2cnn3-c2ccc(C)cc2C)CC1,–,"inconclusive [activator, partial curve]"
O=C(CSc1ccc(-c2ccco2)nn1)NCc1ccc(F)cc1,inactive: 3.49%,–
